The densities may have been worked out from excess volumes.
Test: xn = mol fraction of the nth substance listed
Settings: 101.3 kPa

CCCCC[N+](CC)(CC)CC.O=S(=O)([N-]S(=O)(=O)C(F)(F)F)C(F)(F)F + CCCCC[P+](CC)(CC)CC.O=S(=O)([N-]S(=O)(=O)C(F)(F)F)C(F)(F)F
mass density [kg/m3]
Settings	x1 = 0.2	x1 = 0.4	x1 = 0.6	x1 = 0.8	x1 = 1
283.15 K	1316	1318	1319	1321	1324
288.15 K	1312	1314	1315	1317	1319
293.15 K	1308	1309	1311	1313	1315
298.15 K	1304	1305	–	1309	1311
303.15 K	1300	1301	1303	1305	–
308.15 K	1295	1297	1298	1301	1302
313.15 K	1291	1293	1294	1296	1298
318.15 K	–	1288	1290	1292	1294
323.15 K	1283	1284	1286	1288	1290
328.15 K	1279	1280	1282	1284	1286
333.15 K	1274	1276	1278	1280	1282
338.15 K	1270	1272	–	1276	1278
343.15 K	1266	1268	1269	1272	–
348.15 K	1262	1264	1265	–	1269
353.15 K	–	1260	1261	1263	–

CCC[N+](C)(C)C.O=S(=O)([N-]S(=O)(=O)C(F)(F)F)C(F)(F)F + CCC[N+]1(C)CCCCC1.O=S(=O)([N-]S(=O)(=O)C(F)(F)F)C(F)(F)F
mass density [kg/m3]
Settings	x1 = 0.2	x1 = 0.4	x1 = 0.6	x1 = 0.8	x1 = 1
283.15 K	1425	1428	–	–	1441
288.15 K	1420	1424	1428	1431	1436
293.15 K	1416	1420	–	–	1432
298.15 K	1412	1415	1419	1423	1427
303.15 K	1407	1411	1414	1418	1423
308.15 K	1403	–	–	1414	1418
313.15 K	1399	1402	1406	–	1414
318.15 K	1394	–	–	1405	1409
323.15 K	1390	1393	1397	1400	1405
328.15 K	1386	1389	1392	1396	1400
333.15 K	1381	1385	1388	1392	1396
338.15 K	1377	1380	1384	1387	1391
343.15 K	1373	–	1379	–	1387
348.15 K	1368	1372	1375	–	–
353.15 K	1364	1367	1371	1374	1378

CCC[N+]1(C)CCCCC1.O=S(=O)([N-]S(=O)(=O)C(F)(F)F)C(F)(F)F + CCC[N+](C)(C)C.O=S(=O)([N-]S(=O)(=O)C(F)(F)F)C(F)(F)F
x2 = 0
Settings	mass density [kg/m3]
283.15 K	1422
288.15 K	1418
308.15 K	1400
318.15 K	1391
323.15 K	1387
328.15 K	1383
333.15 K	1378
348.15 K	1365
353.15 K	1361

CCCCC[P+](CC)(CC)CC.O=S(=O)([N-]S(=O)(=O)C(F)(F)F)C(F)(F)F + CCCCC[N+](CC)(CC)CC.O=S(=O)([N-]S(=O)(=O)C(F)(F)F)C(F)(F)F
x2 = 0
Settings	mass density [kg/m3]
288.15 K	1310
293.15 K	1306
298.15 K	1302
303.15 K	1298
308.15 K	1294
313.15 K	1290
318.15 K	1285
328.15 K	1277
333.15 K	1273
338.15 K	1269
343.15 K	1265
348.15 K	1260
353.15 K	1256

CCC[N+]1(C)CCCC1.O=S(=O)([N-]S(=O)(=O)C(F)(F)F)C(F)(F)F + CCC[N+](C)(C)C.O=S(=O)([N-]S(=O)(=O)C(F)(F)F)C(F)(F)F
x2 = 0
Settings	mass density [kg/m3]
283.15 K	1441
288.15 K	1436
293.15 K	1432
303.15 K	1423
308.15 K	1418
313.15 K	1414
318.15 K	1409
323.15 K	1405
328.15 K	1400
333.15 K	1396
338.15 K	1392
343.15 K	1387
348.15 K	1383
353.15 K	1379

CCC[N+](C)(C)C.O=S(=O)([N-]S(=O)(=O)C(F)(F)F)C(F)(F)F + CCC[N+]1(C)CCCC1.O=S(=O)([N-]S(=O)(=O)C(F)(F)F)C(F)(F)F
mass density [kg/m3]
Settings	x1 = 0.2	x1 = 0.4	x1 = 0.6	x1 = 0.8	x1 = 1
283.15 K	1440	–	–	1440	–
288.15 K	1435	1435	–	1436	–
293.15 K	1431	–	1431	1431	1432
298.15 K	1426	1426	1427	1427	1427
303.15 K	1422	1422	1422	–	1423
308.15 K	–	1417	–	1418	1418
313.15 K	1413	1413	–	1414	1414
318.15 K	1409	1408	1409	–	1409
323.15 K	1404	1404	1404	–	–
328.15 K	–	–	1400	–	1400
333.15 K	–	–	–	1396	–
338.15 K	1391	1391	1391	1391	1391
343.15 K	1387	–	1387	1387	1387
348.15 K	1382	–	1382	1382	1383
353.15 K	–	1378	–	1378	1378

Source: a compilation of properties of binary mixtures (doi:10.1021/acs.jced.8b00334)
